The other results are listed elsewhere or left out.
Experiments:
Test in all cases: glycan array binding signal (z-score within array); higher = stronger binding
Settings in all cases: glycan notation: IUPAC condensed, linker removed
[1] = target: Man(a1-2)Man(a1-6)[Man(a1-3)]Man(a1-6)[Man(a1-2)Man(a1-2)Man(a1-3)]Man
Summary of the method: (§1)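 From the Consortium for Functional Glycomics database, 3228 arrays were curated, keeping only those whose protein sequence was available. Binding is given as a within-array Z-score averaged across arrays sharing a protein sequence and across linkers. Negative Z-scores can be read as non-binding.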

[2] = target: Man(a1-2)Man(a1-6)[Man(a1-3)]Man(a1-6)[Man(a1-2)Man(a1-2)Man(a1-3)]Man(b1-4)GlcNAc(b1-4)GlcNAc
Summary of the method: as §1

Man(a1-3)[Man(a1-6)]Man = target: Man(a1-3)[Man(a1-6)]Man
Summary of the method: as §1

[3] = target: Man(a1-3)[Man(a1-6)]Man(a1-6)[Man(a1-2)Man(a1-3)]Man(b1-4)GlcNAc(b1-4)GlcNAc
Summary of the method: as §1

[4] = target: Man(a1-3)[Man(a1-6)]Man(a1-6)[Man(a1-3)]Man
Summary of the method: as §1

[5] = target: Man(a1-3)[Man(a1-6)]Man(a1-6)[Man(a1-3)]Man(b1-4)GlcNAc(b1-4)GlcNAc
Summary of the method: as §1

[6] = target: Man(a1-3)[Man(a1-6)]Man(b1-4)GlcNAc(b1-4)GlcNAc
Summary of the method: as §1

Man(a1-6)Man = target: Man(a1-6)Man
Summary of the method: as §1

Man(b1-4)GlcNAc = target: Man(b1-4)GlcNAc
Summary of the method: as §1

Neu5Ac(a2-3)Gal = target: Neu5Ac(a2-3)Gal
Summary of the method: as §1

[7] = target: Neu5Ac(a2-3)Gal(b1-3)GalNAc
Summary of the method: as §1

[8] = target: Neu5Ac(a2-3)Gal(b1-3)GalNAc(b1-3)Gal(a1-4)Gal(b1-4)Glc
Summary of the method: as §1

[9] = target: Neu5Ac(a2-3)Gal(b1-3)GalNAc(b1-3)Gal(b1-4)GlcNAc
Summary of the method: as §1

[10] = target: Neu5Ac(a2-3)Gal(b1-3)GalNAc(b1-4)[Neu5Ac(a2-3)]Gal(b1-4)Glc
Summary of the method: as §1

[11] = target: Neu5Ac(a2-3)Gal(b1-3)GalNAc6S
Summary of the method: as §1

[12] = target: Neu5Ac(a2-3)Gal(b1-3)GlcNAc
Summary of the method: as §1

[13] = target: Neu5Ac(a2-3)Gal(b1-3)GlcNAc(b1-3)Gal(b1-3)GlcNAc
Summary of the method: as §1

[14] = target: Neu5Ac(a2-3)Gal(b1-3)GlcNAc6S
Summary of the method: as §1

[15] = target: Neu5Ac(a2-3)Gal(b1-3)[Fuc(a1-4)]GlcNAc
Summary of the method: as §1

[16] = target: Neu5Ac(a2-3)Gal(b1-3)[Fuc(a1-4)]GlcNAc(b1-3)Gal(b1-3)[Fuc(a1-4)]GlcNAc
Summary of the method: as §1

[17] = target: Neu5Ac(a2-3)Gal(b1-3)[Fuc(a1-4)]GlcNAc(b1-3)Gal(b1-4)[Fuc(a1-3)]GlcNAc
Summary of the method: as §1

[18] = target: Neu5Ac(a2-3)Gal(b1-3)[Neu5Ac(a2-3)Gal(b1-4)]GlcNAc
Summary of the method: as §1

[19] = target: Neu5Ac(a2-3)Gal(b1-3)[Neu5Ac(a2-6)]GalNAc
Summary of the method: as §1

Neu5Ac(a2-3)Gal(b1-4)Glc = target: Neu5Ac(a2-3)Gal(b1-4)Glc
Summary of the method: as §1

[20] = target: Neu5Ac(a2-3)Gal(b1-4)GlcNAc
Summary of the method: as §1

[21] = target: Neu5Ac(a2-3)Gal(b1-4)GlcNAc(b1-2)Man(a1-3)[GlcNAc(b1-2)Man(b1-4)GlcNAc(b1-2)Man(a1-6)]Man(b1-4)GlcNAc(b1-4)GlcNAc
Summary of the method: as §1

[22] = target: Neu5Ac(a2-3)Gal(b1-4)GlcNAc(b1-2)Man(a1-3)[Neu5Ac(a2-6)Gal(b1-4)GlcNAc(b1-2)Man(a1-6)]Man(b1-4)GlcNAc(b1-4)GlcNAc
Summary of the method: as §1

[23] = target: Neu5Ac(a2-3)Gal(b1-4)GlcNAc(b1-3)Gal(b1-3)GlcNAc
Summary of the method: as §1

[24] = target: Neu5Ac(a2-3)Gal(b1-4)GlcNAc(b1-3)Gal(b1-4)GlcNAc
Summary of the method: as §1

[25] = target: Neu5Ac(a2-3)Gal(b1-4)GlcNAc(b1-3)Gal(b1-4)GlcNAc(b1-3)Gal(b1-4)GlcNAc
Summary of the method: as §1

[26] = target: Neu5Ac(a2-3)Gal(b1-4)GlcNAc(b1-3)Gal(b1-4)[Fuc(a1-3)]GlcNAc
Summary of the method: as §1

[27] = target: Neu5Ac(a2-3)Gal(b1-4)GlcNAc(b1-3)GalNAc
Summary of the method: as §1

[28] = target: Neu5Ac(a2-3)Gal(b1-4)GlcNAc(b1-6)[Gal(b1-3)]GalNAc
Summary of the method: as §1

[29] = target: Neu5Ac(a2-3)Gal(b1-4)GlcNAc(b1-6)[Neu5Ac(a2-3)Gal(b1-3)]GalNAc
Summary of the method: as §1

[30] = target: Neu5Ac(a2-3)Gal(b1-4)GlcNAc6S
Summary of the method: as §1

[31] = target: Neu5Ac(a2-3)Gal(b1-4)[Fuc(a1-3)]GlcNAc
Summary of the method: as §1

[32] = target: Neu5Ac(a2-3)Gal(b1-4)[Fuc(a1-3)]GlcNAc(b1-3)Gal
Summary of the method: as §1

[33] = target: Neu5Ac(a2-3)Gal(b1-4)[Fuc(a1-3)]GlcNAc(b1-3)Gal(b1-4)GlcNAc
Summary of the method: as §1

B1: HHL-1 (Homo sapiens), P07306 (protein)
chain: TKEYQDLQHLDNEESDHHQLRKGPPPPQPLLQRLCSGPRLLLLSLGLSLLLLVVVCVIGSQNSQLQEELRGLRETFSNFTASTEAQVKGLSTQGGNVGRKMKSLESQLEKQQKDLSEDHSSLLLHVKQFVSDLRSLSCQMAALQGNGSERTCCPVNWVEHERSCYWFSRSGKAWADADNYCRLEDAHLVVVTSWEEQKFVQHHIGPVNTWMGLHDQNGPWKWVDGTDYETGFKNWRPEQPDDWYGHGLGGGEDCAHFTDDGRWNDDVCQRPYRWVCETELDKASQEPPLL
- glycan array binding signal (z-score) [1]: 0.162
- glycan array binding signal (z-score) [2]: -0.43
- glycan array binding signal (z-score) (Man(a1-3)[Man(a1-6)]Man): -0.472
- glycan array binding signal (z-score) [3]: -0.485
- glycan array binding signal (z-score) [4]: -0.53
- glycan array binding signal (z-score) [5]: -0.011
- glycan array binding signal (z-score) [6]: -0.456
- glycan array binding signal (z-score) (Man(a1-6)Man): -0.551
- glycan array binding signal (z-score) (Man(b1-4)GlcNAc): -0.539
- glycan array binding signal (z-score) (Neu5Ac(a2-3)Gal): -0.524
- glycan array binding signal (z-score) [7]: 0.366
- glycan array binding signal (z-score) [8]: 0.139
- glycan array binding signal (z-score) [9]: -0.541
- glycan array binding signal (z-score) [10]: -0.564
- glycan array binding signal (z-score) [11]: -0.473
- glycan array binding signal (z-score) [12]: 0.347
- glycan array binding signal (z-score) [13]: -0.449
- glycan array binding signal (z-score) [14]: -0.011
- glycan array binding signal (z-score) [15]: -0.492
- glycan array binding signal (z-score) [16]: -0.53
- glycan array binding signal (z-score) [17]: -0.48
- glycan array binding signal (z-score) [18]: -0.548
- glycan array binding signal (z-score) [19]: -0.238
- glycan array binding signal (z-score) (Neu5Ac(a2-3)Gal(b1-4)Glc): -0.422
- glycan array binding signal (z-score) [20]: -0.203
- glycan array binding signal (z-score) [21]: 0.274
- glycan array binding signal (z-score) [22]: -0.393
- glycan array binding signal (z-score) [23]: -0.121
- glycan array binding signal (z-score) [24]: -0.542
- glycan array binding signal (z-score) [25]: 0.175
- glycan array binding signal (z-score) [26]: 0.959
- glycan array binding signal (z-score) [27]: -0.49
- glycan array binding signal (z-score) [28]: 0.376
- glycan array binding signal (z-score) [29]: 0.154
- glycan array binding signal (z-score) [30]: -0.208
- glycan array binding signal (z-score) [31]: -0.528
- glycan array binding signal (z-score) [32]: -0.143
- glycan array binding signal (z-score) [33]: -0.468

Source: the supplement of paper PMC8728848
